{"source": "patent US6149912A", "about": "(priority 1998, dated 2000)", "key": {"Candida albicans Amb 23A": {"tested_on": "Candida albicans Amb 23A", "conditions": "1 μg 3x i.p. every other day; for Survival rate: 5 days post i.v. challenge (1.8×10^7 CFU)", "description": "(§1) Experiments were conducted to determine the level of infection in selected organs of mice challenged with Candida albicans Amb 23A. Groups of mice were given solanine or chaconine i.p. every other day to receive three infections. Mice were challenged i.v. with 2×10^6 CFU Candida albicans Amb 23A the next day after the last injection of glycoalkaloid. The number of microorganisms present in various organs were calculated 24 hours post challenge and the results are shown in Table 5.\nas §1, with “with 1.8×10^7” for “with 2×10^6”, “The survival rate and the” for “The”, “organs was” for “organs were”, “calculated in surviving animals 5 days” for “calculated 24 hours”"}, "S. typhimurium SL1344": {"tested_on": "S. typhimurium SL1344", "type": "in vivo, Salmonella typhimurium (in CF-1 mice)", "conditions": "5 days post challenge; for Survival rate: single 1 μg/mouse i.p. 5 days before i.p. challenge (4 × 10^3 CFU, 25 LD50); for Liver Culture / Spleen Culture: single 1 μg/mouse i.p. 5 days before i.p. challenge (25 LD50)"}, "S. typhimurium": {"tested_on": "S. typhimurium", "type": "cell-based, Salmonella typhimurium"}, "[1]": {"conditions": "mouse, in vivo"}, "[2]": {"conditions": "24 hours after i.v. challenge (2×10^6 CFU)"}, "[3]": {"conditions": "survivors 5 days post i.v. challenge (1.8×10^7 CFU)"}}, "note": "Where two headings read alike, the source gives them in different places.", "data": [{"smiles": "C[C@H]1CC[C@@H]2[C@@H](C)[C@H]3[C@H](C[C@H]4[C@@H]5CC=C6C[C@@H](O[C@@H]7O[C@H](CO)[C@@H](O[C@@H]8O[C@@H](C)[C@H](O)[C@@H](O)[C@H]8O)[C@H](O)[C@H]7O[C@@H]7O[C@@H](C)[C@H](O)[C@@H](O)[C@H]7O)CC[C@]6(C)[C@H]5CC[C@]34C)N2C1", "note": "[chaconine]", "values": [{"measurement": "Fecal Culture", "setting": "Candida albicans Amb 23A; [2]", "result": "0.02 ± 0.0", "unit": "CFU/pellet × 10^4"}, {"measurement": "Liver Culture", "setting": "Candida albicans Amb 23A; [2]", "result": "2.3 ± 0.1", "unit": "CFU/500 mg × 10^4"}, {"measurement": "Spleen Culture", "setting": "Candida albicans Amb 23A; [2]", "result": "0.6 ± 0.02", "unit": "CFU/100 mg × 10^3"}, {"measurement": "Survival rate", "setting": "Candida albicans Amb 23A", "result": "8/8"}, {"measurement": "Fecal Culture", "setting": "Candida albicans Amb 23A; [3]", "result": "0.8 ± 0.3", "unit": "CFU/pellet × 10^4"}, {"measurement": "Liver Culture", "setting": "Candida albicans Amb 23A; [3]", "result": "0.9 ± 0.3", "unit": "CFU/500 mg × 10^4"}, {"measurement": "Spleen Culture", "setting": "Candida albicans Amb 23A; [3]", "result": "1.4 ± 1.0", "unit": "CFU/100 mg × 10^3"}, {"measurement": "Survival rate", "setting": "S. typhimurium SL1344", "result": "6/8"}, {"measurement": "Liver Culture", "setting": "S. typhimurium SL1344", "result": "1.8 ± 0.3", "unit": "CFU/500 mg × 10^6"}, {"measurement": "Spleen Culture", "setting": "S. typhimurium SL1344", "result": "0.9 ± 0.1", "unit": "CFU/100 mg × 10^6"}, {"measurement": "bactericidal/bacteriostatic activity", "setting": "S. typhimurium", "result": "neither bactericidal nor bacteriostatic"}, {"measurement": "lesions in tissues (histopathology)", "setting": "[1]", "result": "No lesions were observed in tissues from any dose group"}]}, {"smiles": "C[C@H]1CC[C@@H]2[C@@H](C)[C@H]3[C@H](C[C@H]4[C@@H]5CC=C6C[C@@H](O[C@@H]7O[C@H](CO)[C@H](O)[C@H](O[C@@H]8O[C@H](CO)[C@@H](O)[C@H](O)[C@H]8O)[C@H]7O[C@@H]7O[C@@H](C)[C@H](O)[C@@H](O)[C@H]7O)CC[C@]6(C)[C@H]5CC[C@]34C)N2C1", "note": "[solanine]", "values": [{"measurement": "Fecal Culture", "setting": "Candida albicans Amb 23A; [2]", "result": "0.1 ± 0.06", "unit": "CFU/pellet × 10^4"}, {"measurement": "Liver Culture", "setting": "Candida albicans Amb 23A; [2]", "result": "4.3 ± 0.1", "unit": "CFU/500 mg × 10^4"}, {"measurement": "Spleen Culture", "setting": "Candida albicans Amb 23A; [2]", "result": "0.9 ± 0.06", "unit": "CFU/100 mg × 10^3"}, {"measurement": "Survival rate", "setting": "Candida albicans Amb 23A", "result": "7/8"}, {"measurement": "Fecal Culture", "setting": "Candida albicans Amb 23A; [3]", "result": "0.05 ± 0.02", "unit": "CFU/pellet × 10^4"}, {"measurement": "Liver Culture", "setting": "Candida albicans Amb 23A; [3]", "result": "0.4 ± 0.4", "unit": "CFU/500 mg × 10^4"}, {"measurement": "Spleen Culture", "setting": "Candida albicans Amb 23A; [3]", "result": "1.0 ± 0.6", "unit": "CFU/100 mg × 10^3"}, {"measurement": "Survival rate", "setting": "S. typhimurium SL1344", "result": "3/8"}, {"measurement": "Liver Culture", "setting": "S. typhimurium SL1344", "result": "1.4 ± 0.2", "unit": "CFU/500 mg × 10^6"}, {"measurement": "Spleen Culture", "setting": "S. typhimurium SL1344", "result": "0.7 ± 0.1", "unit": "CFU/100 mg × 10^6"}, {"measurement": "bactericidal/bacteriostatic activity", "setting": "S. typhimurium", "result": "neither bactericidal nor bacteriostatic"}, {"measurement": "lesions in tissues (histopathology)", "setting": "[1]", "result": "No lesions were observed in tissues from any dose group"}]}]}
